Laboratory results published in paper PMC4336329 (PLoS ONE, 2015).
The whole screen tested about 310,000 compounds, of which about 2,200 (0.71%) showed an effect of 50% or more. The effect is printed as a negative number. Some of the results follow.

Molecular target: human ether-à-go-go-related gene (hERG) potassium channel (human, UniProt Q12809)
Assay: primary screen, population patch clamp on CHO cells stably expressing hERG

Chain of human ether-à-go-go-related gene (hERG) potassium channel (Q12809 whole entry, looked up): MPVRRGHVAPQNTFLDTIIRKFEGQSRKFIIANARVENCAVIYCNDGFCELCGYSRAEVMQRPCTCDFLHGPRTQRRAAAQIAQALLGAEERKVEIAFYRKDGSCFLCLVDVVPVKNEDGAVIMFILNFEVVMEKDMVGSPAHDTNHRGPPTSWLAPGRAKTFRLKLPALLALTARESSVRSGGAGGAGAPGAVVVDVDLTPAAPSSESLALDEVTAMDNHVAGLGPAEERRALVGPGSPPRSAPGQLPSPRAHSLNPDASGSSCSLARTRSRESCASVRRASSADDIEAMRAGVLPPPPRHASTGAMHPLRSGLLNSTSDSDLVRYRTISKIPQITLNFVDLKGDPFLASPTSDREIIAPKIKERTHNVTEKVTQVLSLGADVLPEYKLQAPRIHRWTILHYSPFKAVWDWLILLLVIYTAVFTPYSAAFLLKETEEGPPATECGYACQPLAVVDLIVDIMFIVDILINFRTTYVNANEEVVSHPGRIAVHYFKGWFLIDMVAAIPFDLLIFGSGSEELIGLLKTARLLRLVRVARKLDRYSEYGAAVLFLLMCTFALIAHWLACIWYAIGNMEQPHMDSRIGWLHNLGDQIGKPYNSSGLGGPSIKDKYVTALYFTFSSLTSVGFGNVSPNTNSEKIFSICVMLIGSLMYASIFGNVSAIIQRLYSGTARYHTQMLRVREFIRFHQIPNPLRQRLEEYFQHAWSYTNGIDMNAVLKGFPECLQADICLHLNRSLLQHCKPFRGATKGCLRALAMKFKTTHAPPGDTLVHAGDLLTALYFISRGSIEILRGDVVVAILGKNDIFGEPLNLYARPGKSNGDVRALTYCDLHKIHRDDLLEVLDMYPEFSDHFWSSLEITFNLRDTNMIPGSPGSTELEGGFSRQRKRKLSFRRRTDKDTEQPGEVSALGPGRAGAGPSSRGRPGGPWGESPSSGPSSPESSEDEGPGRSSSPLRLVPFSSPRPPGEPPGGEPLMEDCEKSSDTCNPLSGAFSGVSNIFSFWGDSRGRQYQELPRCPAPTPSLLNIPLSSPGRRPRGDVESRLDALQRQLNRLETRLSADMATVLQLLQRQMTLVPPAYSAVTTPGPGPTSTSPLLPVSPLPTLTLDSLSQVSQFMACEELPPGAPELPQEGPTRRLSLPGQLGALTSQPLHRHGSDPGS

SMILES	hERG current change (%, negative = inhibition) at 1uM [%]
Cn1c(=O)c2sccc2n(CC(=O)NCCC2=CCCCC2)c1=O	9.89
CCOC(=O)C(C(=O)OCC)[C@@H]1CS(=O)(=O)C[C@H]1C(C(=O)OCC)C(=O)OCC	4.59
COC(=O)c1ccc(C2C(C(=O)c3cc4ccccc4o3)=C(O)C(=O)N2CCN2CCOCC2)cc1 (stereo not shown)	26.7
CC(=O)c1cc(F)c(N2CCCCCC2)cc1C	14.9
O=C(N/N=C/C(Br)=C/c1ccccc1)c1ccncc1	8.43
Cc1ccc(-c2nnc(Nc3ccc(CC(N)=O)cc3)c3ccccc23)cc1	1.45
CCc1nnc2c3cnn(-c4ccccc4)c3ncn12	12.2
CC(C)N(CCCNC(=O)Cn1c(=O)c2cccn2c2ccc(F)cc21)Cc1ccccc1	-3.05
Cc1cc(C)nc(Nc2n[nH]c(-c3ccccc3N)n2)n1	12.4
COC(=O)c1sc(NC(=O)c2cnccn2)c(C(=O)OC)c1C	9.32
O=C(Nc1ccccc1Cl)C1CCCN(S(=O)(=O)c2cccc3cccnc23)C1 (stereo not shown)	17.3
CC(C)CC(NC(=O)C1CCCCC1)C(=O)NC(C)c1ccccc1 (stereo not shown)	9.89
C=CCSc1nc2c(cc1C#N)CCC2	2.93
Cc1c(C)n(C)c2ccc(C(=O)NCCCN3CCOCC3)cc12	13
CC/C([O-])=N\S(=O)(=O)c1ccc(N=NN(C)C)cc1.[K+]	4.59
O=C(Nc1ccc(Cl)cc1)N1CCCC(Cn2cccc2)C1 (stereo not shown)	13.6
CC12CCC(c3c(C(=O)O)nn(-c4ccccc4)c31)C2(C)C (stereo not shown)	13.4
CCN1CCN(c2c(S(=O)(=O)c3ccc(C)c(C)c3)cnc3ccc(F)cc23)CC1	-1.65
CCc1ccc(NC(=O)/C(C#N)=C/c2cn(CC(=O)O)c3ccccc23)cc1	19.8
Cc1ccc(NC(=O)O/N=C/c2cccc([N+](=O)[O-])c2)cc1	2.47
CC(=O)Nc1ccc(OC(F)(F)C(F)F)c(NC(C)=O)c1	14.3
Cc1ccn2c(Nc3ccc4c(c3)OCO4)c(-c3ccccn3)nc2c1	-11.4

SMILES	hERG current change (%, negative = inhibition) at 1uM [%]
O=C(CCNC(=O)c1ccco1)Nc1ccc(C(F)(F)F)cc1	25
O=C(COc1ccccc1)Nc1sc2c(c1C(=O)NCc1cccnc1)CCCC2	1.12
COc1ccc(CCNC(=O)COc2ncnc3cc([N+](=O)[O-])ccc23)cc1	11
CC(C)Oc1ccc(C(=O)NC(=S)Nc2ccc(CN3CCOCC3)cc2)cc1	7.56
O=C(Nc1ccc(F)c(Cl)c1)C1CCN(c2ncnc3c2nc2n3CCCCC2)CC1	-3.97
O=[N+]([O-])c1cc(C(F)(F)F)ccc1N/N=C/c1cc2ccccc2nc1Cl	14.1
CCOC(=O)C1=C(N)OC2=C(C(=O)CCC2)[C@]12C(=O)N(CC(N)=O)c1ccccc12	18.3
COc1ccc(OCc2cc(C(=O)NC(C)Cc3cnccn3)no2)c(Cl)c1 (stereo not shown)	16.8
CCOC(=O)c1sc(N(Cc2ccccc2)C(=O)CCl)nc1C	-5.15
CCOC(=O)CN(C(=O)CNC(=O)c1cccs1)C(C(=O)NC1CCCC1)c1ccncc1 (stereo not shown)	22.1
CSc1ccccc1C(=O)NC1CCCC1	17.9
COc1ccc(CC2(CO)CCN(S(=O)(=O)c3sccc3C)CC2)cc1	10
O=C(CN1C(=O)/C(=C2\SC(=S)N(C3CCS(=O)(=O)C3)C2=O)c2ccccc21)Nc1ccc(F)cc1 (stereo not shown)	17
Nc1cc(Br)c(N)c(Br)c1	-0.168
O=C(Nc1ncc2c(n1)CC(c1ccccc1)CC2=O)c1ccco1 (stereo not shown)	-5.59
CCN(CC(=O)Nc1ccc(NC(C)=O)cc1)C(=O)c1cc(C)on1	15.6
COCCn1c(SCC(=O)c2ccc(CNC(C)=O)o2)nc2ccccc2c1=O	5.38
O=C(NC1CCCC1)c1nc2c(nnn2Cc2cccc(Cl)c2)c(=O)[nH]1	6.2
COc1ccc(CN(C(=O)c2ccc(C)cc2)C2CCS(=O)(=O)C2)cc1 (stereo not shown)	11.3
Cc1ccc(S(=O)(=O)Cn2nnnc2C(c2ccccc2)N2CCN(c3ccccc3)CC2)cc1 (stereo not shown)	14.3
COc1cc(/C=N/NC(=O)c2ccc3c(c2)OCCO3)cc(Cl)c1O	0.0139
